Laboratory results: the supplement of paper PMC10126150
Values marked as one replicate rest on one cluster of the flow cell; about a third of the high ones do not repeat.

System: ATP
Experiment: switch fluorescence ratio, 500 uM ATP over buffer (Cy3 cluster intensity, sum of 5 cycles each) (fold (ratio)); higher = stronger signal-on switching upon ATP binding; sequences stand for … in TCGTCGGCAGCGTCAGATGTGTATAAGAGACAGTTTTTTTTTTTTTTTTTTTTTTTTT…TC
Conditions: aptamer strand: ATP DNA aptamer (quencher-CACCTGGGGGAGTATTGCGGAGGAAGG + anchor), 100 nM annealed; ATP concentration: 500 uM; one replicate
Summary of the method: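 Clusters carrying Cy3-labelled switching strands on a modified Illumina MiSeq flow-cell were annealed to 100 nM quencher-labelled ATP aptamer and imaged in selection buffer. They were imaged again after 15 min with 500 uM ATP at 22 °C, over five buffer/ATP cycles with NaOH stripping and re-annealing in between. For each cluster, the fluorescence ratio is the summed Cy3 intensity of the target cycles divided by that of the buffer cycles, averaged per switch-domain sequence. Clusters outside 100-1000 RFU were left out.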
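Also: ATP exposure 15 min at 22 °C before imaging.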

Row | Sequence | switch fluorescence ratio
1 | AGATGCCCCT | 1.1
2 | TACTGCCTCT | 1.05
3 | CCCCCGGGAA | 1.44
4 | ATTTGCACGT | 1.06
5 | GGCTATTACT | 1.17
6 | ATACGTGAAG | 1.02
7 | GTCATGGGGA | 1.02
8 | GACATCGATC | 1.02
9 | GTTCATAATC | 1.01
10 | TTCCATGGGT | 1.02
11 | ACGATACGTG | 1.12
12 | AGTCGCTACA | 1.01
13 | GAGTGCCAAC | 0.949
14 | TCACGTGAGT | 1.03
15 | AATTGCATTG | 1.03
16 | CAGTTTTGAC | 0.99
17 | CAATATGGGG | 0.999
18 | CAGTCCAACA | 1.01
19 | TCGCTCTAG | 1.03
20 | ACAGTTTCTT | 0.965
21 | TATGCGGGCT | 0.989
22 | AAGAGGGTA | 1.01
23 | GATAATTTAC | 1.04

Row | Sequence | switch fluorescence ratio
24 | TACATATTAC | 1.11
25 | TGAGAGCT | 1.07
26 | CAGGCGTGAA | 1.04
27 | GAGGACACAT | 1.04
28 | ATTACACTGT | 1.03
29 | CCTTTGGGTG | 1.21
30 | TCCTTACCCA | 1.74
31 | CAGGACATA | 1.03
32 | ATTTGGAAAT | 0.984
33 | CTAGTTTGAA | 0.988
34 | TTCGCAATTT | 3.74
35 | ATAGACTTGT | 0.995
36 | ATCTGCCGAA | 1.03
37 | GATAGCTGCG | 1.04
38 | AAATGCTTTG | 1.03
39 | GACTAAAACA | 1.01
40 | GGTTGAAATA | 0.977
41 | AGGCGTCAAG | 1.01
42 | TGCGCCTAGC | 0.974
43 | TTTGAGAAGT | 1.02
44 | TGACAACGCC | 1.28
45 | TTGGCCGAAG | 1.01
46 | ATGGGTGGGA | 1.02

Row | Sequence | switch fluorescence ratio
47 | AGAGATTATG | 0.995
48 | TGACGTGGAG | 0.968
49 | TATGCACGTG | 1.02
50 | CCCGGCTCCC | 2.19
51 | CCGAATACAA | 2.81
52 | ACCGTGTTGG | 1
53 | GGTTCGTGCT | 0.987
54 | TCGGGTACCG | 0.984
55 | ACAGCGGGCC | 1.04
56 | CAGGATATCA | 1.02
57 | GGCATGATGG | 0.969
58 | GGTGGAAACA | 0.972
59 | ACGGAAGGCT | 1.02
60 | AAAAATAGGT | 1
61 | ACGTGAAGAT | 1.05
62 | TCATGGAACT | 1.02
63 | TATTCTGTTG | 0.964
64 | AGGTCTCAAC | 1.03
65 | CAGATGTGTA | 1.01
66 | ACGGATGACC | 1.04
67 | TTTATGATCC | 1
68 | CTAGAAAGGT | 1.01
69 | AAATCGATGA | 1.02

Row | Sequence | switch fluorescence ratio
70 | CCGGCACGGC | 1.07
71 | ACGGTCCGTT | 1.01
72 | GTATTGCGTA | 1.03
73 | GCGAATCAAT | 1.05
74 | AGAACGTTTT | 1.06
75 | ATCAGGTCGT | 1.01
76 | CGGGTATATG | 0.987
77 | AAACGAGCAG | 1.04
78 | TTGGTACGTA | 0.934
79 | AAATTTCAAA | 1.02
80 | TACGTCCAAT | 1.07
81 | AAAAAGCAC | 1.08
82 | ACTTTATCGG | 0.989
83 | ACTCTTGGCC | 1.03
84 | TTTCCTGGTG | 1.13
85 | AGATCTCGCT | 0.981
86 | TAGACGAAGA | 0.974
87 | TTGTGTTAA | 0.948
88 | GCGCAGCCTG | 0.994
89 | GACCGAGAGA | 0.997
90 | AGAAACAAAT | 0.972
91 | AAATCATCTT | 1.02
92 | CAGGAATTGA | 1

Row | Sequence | switch fluorescence ratio
93 | TTCAATACTA | 1.17
94 | AGGATCAAGG | 0.985
95 | CAGCATATCC | 2.08
96 | GTTGTGGCCT | 1.03
97 | ACGTGTAAGG | 1.03
98 | TGGCTGAGAC | 1.01
99 | AACGCAACAA | 1.97
100 | AGCACTTATG | 0.977
101 | GGCTGGATAC | 1.28
102 | AGGTTGGT | 0.977
103 | CGTCGACGTT | 1.04
104 | AAGTGCGCCC | 1.01
105 | AATGCGTCAG | 0.988
106 | GGGATGCCAG | 1.03
107 | TTAAGCGGAT | 0.993
108 | TCGCCTTGAT | 1
109 | GCGACCGCCG | 1.06
110 | TCCTTGTGAA | 1.03
111 | TCAGGTTATC | 1.03
112 | TGCTCACCTG | 1.05
113 | GTCGAATAGT | 1
114 | TGGACAAAGC | 0.933
115 | ATTTGGTTCG | 0.989

Row | Sequence | switch fluorescence ratio
116 | CTTAGCGCAA | 2.25
117 | TGATGAGAAG | 1.04
118 | GCGAGTCTGC | 1.03
119 | CCCACATGAA | 1.02
120 | TTATCGTTTT | 1.01
121 | GTTACTGAGC | 1.02
122 | GACATTTAG | 0.991
123 | TTAAAACGCG | 1.05
124 | TGTTGGTAAG | 0.972
125 | ACATAAGGAC | 1.01
126 | TCCCCCAATA | 1.06
127 | GTAGAGATTA | 0.997
128 | TAATAGGCTA | 1.01
129 | TAGTCATGTT | 0.98
130 | TTAAAAATTC | 0.941
131 | ACTATCATCA | 0.993
132 | GCATCTCAAC | 1.06
133 | TATGGTCCGA | 0.983
134 | AGCTGTGTCC | 0.989
135 | AGGGCGAATG | 0.955
136 | ATATTCGATG | 0.986
137 | TCTCTATAGT | 1.05
138 | TAAAAGCATC | 1.02

Row | Sequence | switch fluorescence ratio
139 | AGTAAGCAAG | 1
140 | AGTGATCCTG | 0.987
141 | TCTCGTTG | 0.991
142 | GTGAACGGGT | 1.02
143 | AAACTTGTAG | 1
144 | TAGTTGAGAT | 1.02
145 | GCCCCTCGGT | 1.03
146 | AGCAAAAGAG | 1.05
147 | GGGCGCACCG | 1
148 | AACCAGGACA | 0.993
149 | CGGCCGCTTG | 3.71
150 | GAGTGGTGTC | 1.03
151 | GTTGCGCATT | 1.08
152 | AACAGTATTG | 1.01
153 | TAACTCTAAT | 1
154 | AAGTAGAGCT | 1.05
155 | GCATACCCTC | 1.13
156 | GCACCAGGGC | 1.2
157 | ATAGCAAA | 1.69
